Experimental data published in PubChem BioAssay AID1963442 (Molecular Pharmacology Branch, DTP, NCI, 2024).
Some entries of the source have several records that differ or are many. Only these are listed. The source may hold further records. Results that share an entry are repeats across runs, samples, wells, individuals or studies. Signs of the kind (2×) say how often a value occurs here. Marks such as [2022-09] give the month of the run.

Tested on: MPNST complex spheroid with HUVEC/MSC, growth, % test/control
Assay: Anticancer human tumor MPNST cell line growth inhibition [Asc];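 also: compounds left on spheroids for seven days before reading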
Details: for viability, T/C: stronger effect = lower value; for IC50: compound alone
Method: Multicellular complex tumor spheroid response to apoptosis pathway targeting inhibitors Alrizomadlin, Pelcitoclax, and Dasminapant in combination with a variety of drugs and investigational agents in selected tumor cell lines
The MDM2 inhibitor alrizomadlin, the Bcl-2/Bcl-xL inhibitor pelcitoclax, and the IAPs inhibitor dasminapant were evaluated both individually and in combination with standard of care and investigational anticancer small molecules within a complex spheroid model of solid tumors. . Complex spheroids include a stromal component modeled by human endothelial cells (HUVEC) and fibroblasts modeled by human mesenchymal stem cells (MSCs). The concentration ranges selected for each drug and investigational agent were based upon clinically achievable concentrations if the clinical Cmax of the agent was known.
Compounds. The drugs and investigational agents: alrizomadlin (APG-115; NSC831270), pelcitoclax (APG-1252; NSC835773), dasminapant (APG-1387;NSC834197), TAK-243 (NSC785004), copanlisib (NSC809693), olaparib (NSC753686), talazoparib (NSC767125), cobimetinib (NSC 768068), eltanexor (KPT-8602, NSC 794443), abemaciclib (NSC 768073), sotorasib (NSC818433), adagrasib (NSC 831453), MRTX-1133 (NSC 836407), Iadademestat (ORY1001, NSC 806812), and RMC-4630 (NSC839698), were obtained from the NCI Developmental Therapeutics Program Chemical Repository. The FDA-approved anticancer drug set is available from the Developmental Therapeutics Program at https://dtp.cancer.gov/organization/dscb/obtaining/available plates.htm. […] The stock solutions were prepared in dimethyl sulfoxide (DMSO, Sigma-Aldrich, St. Louis, MO, cat. D2650) at 800-fold the tested concentration and stored at -70 degrees C prior to their use. All drugs and investigational agents were tested over a range starting from a high concentration at or near the clinical Cmax and decreasing in half-log increments. If the clinical Cmax for an agent had not been determined, the highest concentration tested was 10 microM.
The patient-derived cancer (PDC) cell lines include five colon adenocarcinomas: 186277-243-T-J2-PDC, 616215-338-R-J1-PDC, 439559-082-T-J2-PDC, 463943-066-T-J2-PDC, and 519858-162-T-J1-PDC; three pancreatic carcinomas: 323965-272-R-J2-PDC, 521955-158-R6-J3-PDC, and 521955-158-R2-J5-PDC; two uterine sarcomas: 327498-152-R-J2-PDC and 993429-296-R-J1-PDC; two rhabdomyosarcomas: 755483-174-R-J1-PDC and 772245-204-R-J1-PDC; two soft tissue sarcomas: 126254-015-R-J1-PDC and 494315-158-R-J1-PDC; two malignant fibrous histiocytomas: 317291-083-R-J1-PDC and 596521-263-R-J1-PDC; two breast carcinomas: 171881-019-R-J1-PDC and 885512-296-R-J2-PDC; and one ovarian carcinoma: 6556581-035-R-J-PDC were obtained from the NCI PDMR, (https://pdmr.cancer.gov). The established cell lines HSSY-2 synovial sarcoma (RRID:CVCL 8719), SYO-1 synovial sarcoma (RRID:CVCL_7146), MPNST malignant peripheral neural sheath tumor were obtained from the Sloan Kettering Institute. The following established cell lines were purchased from the American Type Culture Collection (ATCC, Manassas, VA), Sor the received from the NCI repository:, PANC-1 pancreatic carcinoma (CRL-1469, RRID:CVCL_0480), OVCAR-5 ovarian carcinoma (RRID:CVCL_1628), OVCAR-8 ovarian carcinoma (RRID:CVCL_1629), , MCF-7 breast carcinoma (CRL-12584, RRID:CVCL_0031), MDA-MB-231 breast carcinoma (CRL-12532, RRID:CVCL_0062), NCI-H1876 small cell lung carcinoma (CRL-5902, RRID:CVCL_1503), NCI-H510A small cell lung carcinoma (HTB-184, RRID:CVCL_1565), NCI-H1417 (CRL-5869, RRID:CVCL_1469), and NCI-H196 small cell lung carcinoma (CRL-5823, RRID:CVCL_1509). Dr. Peter Houghton (Greehey Children's Cancer Research Institute, University of Texas Health Science Center, San Antonio, TX) provided Rh-18 rhabdomyosarcoma (RRID:CVCL_1659). Pooled donor human umbilical vein endothelial cells (HUVEC, Lonza, cat. CC-2519) and human mesenchymal stem cells (hMSC, Lonza, cat. PT-2501) were purchased from Lonza (Walkersville, MD).
Cell Culture. […]

C=C(F)C(=O)N1CCN(c2nc(OCC3CCCN3C)nc3c2CCN(c2cccc4cccc(Cl)c24)C3)CC1CC#N (centres undefined)
viability, T/C (compound alone 10 µM): 75.3%, 61% [2022-10] and 1.96% [2022-11]

Cc1c(S(C)(=O)=O)c(-c2cc(F)cc(N3CCN(c4ccc(NS(=O)(=O)c5ccc(NC(CCN6CCC(C(=O)OCCCP(=O)(O)O)CC6)CSc6ccccc6)c(S(=O)(=O)C(F)(F)F)c5)cc4)CC3)c2)c(-c2ccc(Cl)cc2)n1C(C)C (centres undefined)
viability, T/C (compound alone 0.1 µM): 70.1, 56.5, 58.2, 79.8, 65.2, 61.8, 64.3, 66.6, 54, 59, 58.3, 82.2, 72.3, 104% | viability, T/C (compound alone 0.316 µM): 64.5, 90, 79, 75, 108, 57.9, 64.6, 68.3, 87.8, 70.8, 73.3, 131, 91.9, 135% | viability, T/C (compound alone 1 µM): 104 (2×), 79.7, 88.2, 90.2, 85, 79.2, 93.9, 78.2, 96.6, 77, 130, 91.8, 108% | viability, T/C (compound alone 3.16 µM): 86.2, 93.7, 69.3, 74.8, 91.1, 61.9, 69.4, 71.1, 60.7, 94.6, 74.1, 103 (2×), 88.5% | viability, T/C (compound alone 10 µM): 68.2, 67.5, 72, 61.9, 92.5, 70.4, 71.9, 78.5, 74.5, 68.4, 71, 154, 99.9, 124%

NC(=O)C(=Cn1cnc(-c2cc(C(F)(F)F)cc(C(F)(F)F)c2)n1)c1cncnc1
IC50: 24.9 nM, > 300 nM [2022-10] and < 0.949 nM [2022-11]

CNC(C)C(=O)NC1CN(S(=O)(=O)c2cccc(S(=O)(=O)N3CCC4CCC(C(=O)NC(c5ccccc5)c5ccccc5)N4C(=O)C(NC(=O)C(C)NC)C3)c2)CCC2CCC(C(=O)NC(c3ccccc3)c3ccccc3)N2C1=O (centres undefined)
viability, T/C (compound alone 0.00316 µM): 93.6%, 120% [2022-10] and 12.5, 58.4, 49.3, 86.2, 76.3, 74.5, 62.8% [2022-11] | viability, T/C (compound alone 0.01 µM): 83.9%, 137% [2022-10] and 47.7, 82, 67, 84.3, 99.4, 81.1, 67.8% [2022-11] | viability, T/C (compound alone 0.0316 µM): 86%, 111% [2022-10] and 65.2, 112, 78, 83.2, 94.8, 74.1, 85.5% [2022-11] | viability, T/C (compound alone 0.1 µM): 78.3%, 104% [2022-10] and 81.3, 98.2, 87, 92.7, 109, 61.5, 93% [2022-11] | viability, T/C (compound alone 0.316 µM): 86.5%, 105% [2022-10] and 88.6, 86.1, 79.6, 74.4, 127, 78.1, 104% [2022-11] | viability, T/C (compound alone 1 µM): 121%, 103% [2022-10] and 73.3, 90, 93.3, 81.1, 101, 73.5, 81.4% [2022-11] | IC50 (run of 11/15/2022): < 3.16 nM and > 1 µM

CCN1C(C(=O)NC23CCC(C(=O)O)(CC2)CC3)C(c2cccc(Cl)c2F)C2(C(=O)Nc3cc(Cl)ccc32)C12CCCCC2 (centres undefined)
viability, T/C (compound alone 0.03 µM): 92.7, 81, 87.1, 98, 56.3, 63.5, 79.8, 68.1, 74.4, 51.9, 70.3, 67, 76.6, 96.6% [2022-10] and 80.6% [2022-11] | viability, T/C (compound alone 0.0949 µM): 124, 111, 103, 126, 78.9, 91.3, 86.2, 107, 89.7, 71.5, 83.7, 85.3, 92.5, 97.6% [2022-10] and 92.6% [2022-11] | viability, T/C (compound alone 0.3 µM): 98.3, 110, 89.2, 129, 83.5, 101 (2×), 89.7, 102, 81.1, 96.5, 86.7, 76.5, 105% [2022-10] and 80.5% [2022-11] | viability, T/C (compound alone 0.949 µM): 104 (2×), 105, 86.8, 113, 87.2, 87.4, 94.3, 86, 80.4, 90.2, 74.6, 88.5, 83.3% [2022-10] and 59.4% [2022-11] | viability, T/C (compound alone 3 µM): 105, 92.3, 70, 95.7, 60.8, 69.3, 70.6, 74.7, 73 (2×), 76.6, 69.4, 64.9, 68.4% [2022-10] and 42.7% [2022-11]
